Source: PubChem BioAssay AID485344 (National Center for Advancing Translational Sciences (NCATS), 2010)
In all, about 340,000 compounds went through this assay and about 6,900 (2%) were called active. Rule as the data show it: active = inhibition above about 30%; inactive = below that, where a call was filed. The entries are a selection whose mix differs from that of the whole data set. Entries without a call were filed so in the source.

target: D(2) dopamine receptor (Homo sapiens) (UniProt P14416); assay: HTS Assay for Allosteric Antagonists of the Human D2 Dopamine Receptor: Primary Screen for Antagonists; details: HEK293 TREx D2 cells, calcium flux, dopamine EC80; at 10 µM; stronger effect = higher value; also: 0% is about no effect
Sequence of UniProt P14416 (P14416 whole entry, looked up): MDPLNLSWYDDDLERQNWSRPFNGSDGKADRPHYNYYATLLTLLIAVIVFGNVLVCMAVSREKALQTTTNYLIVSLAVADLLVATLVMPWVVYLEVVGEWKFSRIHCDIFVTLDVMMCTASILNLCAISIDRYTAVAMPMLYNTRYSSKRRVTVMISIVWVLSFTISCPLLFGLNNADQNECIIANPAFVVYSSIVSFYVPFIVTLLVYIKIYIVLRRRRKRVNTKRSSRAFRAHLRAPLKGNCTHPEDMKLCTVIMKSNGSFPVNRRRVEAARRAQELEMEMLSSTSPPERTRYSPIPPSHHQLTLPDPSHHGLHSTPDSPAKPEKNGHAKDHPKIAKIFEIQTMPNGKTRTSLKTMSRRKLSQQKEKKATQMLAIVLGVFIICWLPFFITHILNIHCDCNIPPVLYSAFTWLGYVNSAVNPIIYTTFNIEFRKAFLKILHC
Outline: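 Tetracycline-induced HEK293 T-REx cells expressing D2 force-coupled to calcium signalling were dye-loaded, exposed to compound for 180 s, then challenged with an EC80 of dopamine; calcium flux was followed kinetically for a further 180 s.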

Compound	inhibition
O=C1OC(C(=O)Nc2cc(C(F)(F)F)ccc2Cl)Cc2ccccc21 (stereo unspecified)	-22.6%
Cc1ccc(C)c(N2CCN(C(=O)c3cnn(-c4ccccc4Cl)c3C3CCN(C(=O)OC(C)(C)C)CC3)CC2)c1	-4.08%
COc1ccc(Cc2nc3ccc(C(=O)NCc4ccccc4Cl)cc3o2)cc1	22.5%
O=C(Nc1nnc(S(=O)(=O)N2CCc3ccccc32)s1)c1cccc(Cl)c1	2.59%
CCCC(CCC)C(=O)NC1CC(=O)N(c2ccc3c(c2)OCCO3)C1 (stereo unspecified)	0.0469%
Cc1ccc(/C=C(\C#N)c2nc3ccccc3c(=O)[nH]2)cc1	-3.45%
O=c1nc2ccccc2c2n1CC(CN1CCN(C(c3ccccc3)c3ccccc3)CC1)N2 (stereo unspecified)	active: 47.2%
COc1ccc(NC(=O)C2CCCN(c3nnc(C)c4c(C)n(-c5ccccc5)nc34)C2)cc1Cl (stereo unspecified)	6.11%
COCCOC(=O)c1c(-c2ccccc2)c(-c2ccccc2)nn(C)c1=O	-18.5%
CCc1ccccc1NC(=O)Cn1c(=O)n(Cc2ccc(OC)cc2)c(=O)c2oc3ccccc3c21	1.92%
CCOc1ccc(CC(=O)Nc2c(C(=O)c3ccccc3)oc3ccc(OC)cc23)cc1OCC	5.25%
c1ccc(Cc2noc(CN3CCN(CCOc4ccccc4)CC3)n2)cc1	active: 55.5%
Nc1ccc2[nH]ncc2c1	active: 34%
CN(Cc1ccccc1)C(=O)CSc1nc(-c2ccc(F)cc2)cc(C(F)(F)F)n1	3.79%
O=c1nc(Nc2cccc(Cl)c2)oc2cc(Cl)oc(=O)c12	active: 31.6%
O=C(/C=C/c1ccccc1Cl)Nc1nc(-c2cccs2)ns1	-4.97%
COc1ccc(NC(=O)N2CCN(S(=O)(=O)c3ccc4c(ccn4C)c3)CC2)c(OC)c1	-23.8%
Cc1nc2ccn(Cc3ccco3)c(=O)c2cc1C(=O)N1CCN(c2ccc(F)cc2)CC1	1.6%
O=C(Cn1cc(SCc2c(F)cccc2Cl)c2ccccc21)N1CCCC1	-7.01%
CC(C)c1ccc(N2C(=O)CSC23C(=O)N(Cc2ccccc2)c2ccccc23)cc1 (stereo unspecified)	1.86%
Cc1ccc(NC(=O)Cn2c(=O)n(Cc3nc(C)no3)c(=O)c3cc4c(cc32)OCO4)cc1	7.01%
CCN(Cc1nc(-c2ccc(OC)c(OC)c2)no1)C(=O)c1ccc2c(c1)OCO2	active: 37.4%
Cc1cc(NS(=O)(=O)c2ccc3oc(=O)c4ncn(C)c4c3c2)ccc1Br	-11.8%

Compound	inhibition
Cc1ccc(C)c(OC(=O)CSc2nnc(-c3ccc4c(c3)OCO4)o2)c1	-17%
CCCCc1ccc(NC(=O)c2ccc3c(c2)CCN3S(=O)(=O)c2ccccc2)cc1	1.31%
CCOc1cc(C(=O)Nc2ccc(S(=O)(=O)Nc3cc(OC)nc(OC)n3)cc2)cc(OCC)c1OCC	9.61%
COC(=O)c1ccc(Cn2c(SCC(=O)N(C)c3ccccc3)nc3ccccc32)cc1	6.55%
CCOc1cc2[nH]c(=O)n(CCCC(=O)N3CCN(c4cccc(Cl)c4)CC3)c(=O)c2cc1OCC	5.18%
COc1ccc(OC)c(NC(=O)N2CCC(CN3CCCCC3)CC2)c1	2.8%
COc1ccc(OC)c(CNc2sc3c(c2C(=O)Nc2cc(OC)ccc2OC)CCCC3)c1	-7.14%
CC(C)Cn1cc(C(=O)N2CCN(c3cccc(Cl)c3)CC2)c2c3ccccc3n(C)c2c1=O	-12%
CC(=O)N1CCCc2cc(S(=O)(=O)N3CCCC(C(=O)Nc4cccc(Cl)c4C)C3)ccc21 (stereo unspecified)	20.2%
CCOC(=O)c1cnc2ccc(OCC)cc2c1Nc1cc(Cl)c(OC)cc1OC	-6.6%
CCC1=C(c2ccc(C)cc2)S(=O)(=O)N=C1N1CCC(C(=O)NCc2ccccc2Cl)CC1	-6.01%
CCCCCOC(=O)c1ccc(OC(=O)c2sc3ncn(Cc4cccc(F)c4)c(=O)c3c2C)cc1	-20.5%
CCCN(CCC)CCNC(=O)C1CCCN(S(=O)(=O)c2cccc3nsnc23)C1 (stereo unspecified)	6.6%
CCOC(=O)c1cc(S(=O)(=O)N2CCN(c3ccc(F)cc3)CC2)[nH]n1	-22.3%
Cc1ccc(C)c(N2CCN(CCCNC(=O)c3nnc(Cc4ccc(F)cc4Cl)o3)CC2)c1	4.95%
CCn1c(=O)cc(OCC(=O)NCCCN2CC(C)CC(C)C2)c2ccccc21 (stereo unspecified)	active: 58%
COCCn1c(SCC(=O)Nc2ccc(C(F)(F)F)cc2)nc2c([nH]c3ccccc32)c1=O	5.66%
O=C(NCc1ccc2c(c1)CCN2C(=O)c1ccccc1)c1ccco1	22.7%
O=C(Nc1ccc(S(=O)(=O)N(Cc2ccccc2)c2ccccc2)cc1)c1ccc([N+](=O)[O-])cc1	-13.5%
Cc1ccc(NC(=O)C(=O)NCCc2csc3nc(-c4ccccc4C)nn23)cc1Cl	-3.96%
COc1ccc(C(C#N)(CCC#N)CCC#N)cc1OC	active: 79.5%
O=C(NCc1ccccc1Cl)c1ccc(NC(=O)N2CCSc3ncccc32)cc1	-1.85%
COc1cccc(N2CCN(C(=O)c3cc4c(=O)n(Cc5ccco5)ccc4nc3C)CC2)c1	6.99%
